Laboratory results published in PubChem BioAssay AID588342 (National Center for Advancing Translational Sciences (NCATS), 2011).
In all, about 360,000 compounds went through this assay and about 25,000 (6.9%) were called active. This list was built around the results that the source calls inconclusive (neither active nor inactive); the mix of calls is not that of the screen. The call rests on the fitted dose curve; in most records, active means well fitted inhibition curve with a large enough effect; inconclusive means small, poorly fitted or top-dose-only effect; inactive means flat fitted curve, though single readings scatter. A potency beside an inconclusive call is a rough fit, not a confirmed value.

Each compound was assayed against Luciferin 4-monooxygenase (Photinus pyralis) (UniProt P08659) (assay: qHTS profiling assay for firefly luciferase inhibitor/activator using purifed enzyme and Km concentrations of substrates (counterscreen for miR-21 project)). Conditions: purified FLuc, luminescence inhibition; series mostly up to 57.5 µM.
Summary of the method: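 Purified P. pyralis luciferase (10nM final) with 10uM D-luciferin and 10uM ATP (Km levels) in 50mM Tris acetate pH 7.5, 10mM Mg acetate, 0.01% Tween-20, 0.05% BSA; qHTS 6-point titration, ~60 µM downward; luminescence read.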
Further: nearly all actives have a fitted effect of over 55% in size.
Potency means the concentration at half of the fitted maximal effect; tags describe the fitted curve by direction and shape.

Sequence of UniProt P08659 (P08659 whole entry, looked up): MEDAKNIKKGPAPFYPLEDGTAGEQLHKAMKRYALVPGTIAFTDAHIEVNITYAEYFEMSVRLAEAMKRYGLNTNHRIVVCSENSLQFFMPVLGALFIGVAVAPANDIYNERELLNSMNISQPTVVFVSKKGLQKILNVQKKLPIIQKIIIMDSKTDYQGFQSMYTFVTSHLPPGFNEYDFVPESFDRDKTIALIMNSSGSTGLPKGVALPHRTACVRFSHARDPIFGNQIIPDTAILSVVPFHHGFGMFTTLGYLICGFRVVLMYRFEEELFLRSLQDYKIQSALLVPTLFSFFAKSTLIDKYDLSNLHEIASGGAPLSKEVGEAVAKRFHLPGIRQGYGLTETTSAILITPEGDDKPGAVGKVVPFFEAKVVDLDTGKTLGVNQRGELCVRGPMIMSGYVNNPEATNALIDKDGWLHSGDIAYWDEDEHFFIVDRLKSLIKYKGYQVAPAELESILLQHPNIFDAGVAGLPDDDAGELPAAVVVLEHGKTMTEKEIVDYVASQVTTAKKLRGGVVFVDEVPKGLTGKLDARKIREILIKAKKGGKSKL

Compound | Potency
CCOc1ccc(NS(=O)(=O)c2ccc3[nH]cc(C(=O)N(C)Cc4ccccc4)c(=O)c3c2)cc1 | inconclusive: 9.53 µM [inhibitor, partial curve]
Cc1ccc(CNC(=O)c2ccc3c(=O)[nH]c4c(C(=O)NCC5CCCO5)sc(=S)n4c3c2)cc1 (centres undefined) | active: 19 µM
Cc1nnc(SCc2ccc(Cl)cc2)c2cc3occc3n12 | inconclusive: 15.1 µM [inhibitor, partial curve, poor fit]
O=C1C(Nc2ccc(O)cc2)=C/C(=N/S(=O)(=O)c2cccs2)c2ccccc21 | inconclusive: 21.3 µM [inhibitor, single point]
COC(=O)N/N=C/c1ccc(-c2ccccc2Cl)o1 | inconclusive: 23.9 µM [inhibitor, partial curve]
COc1ccc(S(N)(=O)=O)cc1C(=O)N(C)CC(=O)Nc1ccc(N2CCOCC2)cc1 | inconclusive: 23.9 µM [inhibitor, single point]
C/C(CC(=O)Nc1ccc(N(C)C)cc1)=N\NC(=O)c1ccc(C(C)(C)C)cc1 | inconclusive: 23.9 µM [inhibitor, partial curve]
COc1ccc(/C=C2\SC(=O)N(CC(=O)Nc3ccc(F)cc3)C2=O)cc1O | inactive
CCOC(=O)C/C(=N\Nc1ncnc2ccccc12)c1ccccc1 | inconclusive: 26.9 µM [inhibitor, single point]
O=C(Cn1c(=S)nc2ccccn21)N1CCc2ccccc2C1 | inconclusive: 37.9 µM [inhibitor, single point]
O=C(COc1ccccc1)Nc1cc(Cl)ccc1Cl | inconclusive: 16.9 µM [inhibitor, partial curve]
Cc1ccc2c(CN3CCCCC3)cc(=O)oc2c1 | inconclusive: 37.9 µM [inhibitor, partial curve, poor fit]
CCn1c(C)nc2cc(C(=O)N/N=C/c3ccc(OC)c(O)c3)ccc21 | inconclusive: 26.9 µM [inhibitor, partial curve, poor fit]
COc1ccc(-c2nc(CN3CCN(Cc4cccc(Cl)c4)CC3)c(C)o2)cc1 | inconclusive: 37.9 µM [inhibitor, partial curve, poor fit]
COc1ccc(C(=O)CNc2ccc(C)cc2C)cc1 | active: 12 µM
O=C(NCc1cccc(Cl)c1)c1cc(COc2ccc3ncccc3c2)on1 | inactive
COc1ccc(OCC(=O)Nc2ccc3c(c2)nc2n3CCSC2)cc1 | inconclusive: 26.9 µM [inhibitor, partial curve, poor fit]
O=C(/C=C/c1ccc(Cl)cc1)Nc1ccc(CN2CCOCC2)cc1 | inconclusive: 23.9 µM [inhibitor, single point]
CC1CCC(NC(=O)c2nc(Cn3ccc([N+](=O)[O-])n3)no2)CC1 (centres undefined) | inactive
Cc1[nH]n(-c2cccc(Cl)c2)c(=O)c1C=NCc1ccco1 | active: 1.51 µM
Cc1nnc(SCC2=C(C(=O)O)N3C(=O)C(NC(=O)C(C)n4nc(C(F)(F)F)cc4C)C3SC2)s1 (centres undefined) | inactive
COc1cc(/C=C/C(=O)c2ccc([N+](=O)[O-])o2)ccc1O | inconclusive: 15.1 µM [inhibitor, partial curve]
CCOC(=O)c1ccc(Oc2ccc(C(F)(F)F)cn2)cc1 | inconclusive: 21.3 µM [inhibitor, partial curve, poor fit]

Compound | Potency
Cc1cc(S(=O)(=O)Nc2ccc(-c3ccc(N4CCCCC4)nn3)cc2)c(C)cc1Cl | inconclusive: 12 µM [inhibitor, partial curve]
O=C(OCC(=O)N1CCCC1)c1cccs1 | inconclusive: 30.1 µM [inhibitor, partial curve, poor fit]
O=S(=O)(CCc1nc2ccccc2s1)c1ccc(Cl)cc1 | inactive
COC(=O)c1c(SCC(=O)Nc2cc(C)cc(C)c2)[nH]c2ccccc2c1=O | inconclusive: 26.9 µM [inhibitor, single point]
O=C(Nc1nnc(CSCc2ccccc2F)s1)c1cccc([N+](=O)[O-])c1 | inconclusive: 26.9 µM [inhibitor, single point]
CC(C)(C)c1nnc(NC(=S)Nc2ccccc2)s1 | active: 9.53 µM
OC(COCc1ccccc1)CN1CCCCC1 (centres undefined) | inactive
CC(NC(=O)CSc1ccccc1)c1ccccc1 (centres undefined) | inactive
Nc1ccc(C(=O)Nc2ccc3nc(-c4ccncc4)[nH]c3c2)cc1 | active: 16.9 µM
COc1ccc2nc(Nc3nc4cc5c(cc4s3)OCO5)sc2c1 | inactive
COC(=O)Cc1cc(=O)n(-c2nc3ccccc3[nH]2)[nH]1 | inconclusive: 21.3 µM [inhibitor, partial curve, poor fit]
Cc1c(C)n(C)c2ccc(C(=O)Nc3cccc4ccccc34)cc12 | inconclusive: 13.5 µM [inhibitor, partial curve]
Cc1csc(NC(=O)CSc2ccccc2F)n1 | inconclusive: 26.9 µM [inhibitor, partial curve, poor fit]
COc1ccccc1NC(=O)c1cc(-c2ccc(C)o2)nc2ccccc12 | active: 7.57 µM
CCOc1ccc2nc(N3CCCC(C(=O)NCCCN4C(C)CCCC4C)C3)sc2c1 (centres undefined) | inconclusive: 26.9 µM [inhibitor, single point]
CCN(c1ccc(NC(=O)CSc2nnc3nc(C)cc(C)n23)cc1)C(C)C | inconclusive: 23.9 µM [inhibitor, partial curve, poor fit]
COc1ccc(C(CC(=O)O)c2ccc3c(c2)OCO3)cc1 (centres undefined) | inactive
Cc1ccc(C(=O)Nc2nnc(-c3cccs3)s2)cc1C | inconclusive: 1.35 µM [inhibitor, partial curve, poor fit]
Cc1cc(OCC(=O)Nc2ccc(N3CCN(C)CC3)cc2)ccc1Cl | inconclusive: 37.9 µM [inhibitor, partial curve, poor fit]
Cc1ccc(CSc2nc3cccnc3n2Cc2ccc(C(=O)NCCc3ccccc3)cc2)cc1 | active: 0.478 µM
COc1ccc2c(Cl)c(C(=O)NN)sc2c1 | inconclusive: 37.9 µM [inhibitor, partial curve, poor fit]
CSc1nnc(C(C)(C)C)c(=O)n1/N=C/c1ccc(C(C)C)cc1 | inconclusive: 21.3 µM [inhibitor, single point]
COc1ccccc1C(=O)NCCn1cc(SCC(=O)Nc2cc(C)on2)c2ccccc21 | inconclusive: 37.9 µM [inhibitor, partial curve, poor fit]

Compound | Potency
CCOC(=O)c1c(C)[nH]c(C)c1C(=O)COC(=O)c1ccc(S(=O)(=O)C(F)F)cc1 | inactive
Clc1ccccc1CSc1nnc(-c2ccncc2)o1 | active: 16.9 µM
Cc1cccc(C(=O)O/N=C(/c2ccccc2)c2ccncc2)c1 | inconclusive: 37.9 µM [inhibitor, single point]
Cc1nc2c3cnn(-c4ccc(C)c(C)c4)c3ncn2n1 | active: 6.75 µM
O=C(Oc1cccc2cccnc12)c1ccc(N2C(=O)C3C4CCC(C4)C3C2=O)cc1 (centres undefined) | inconclusive: 26.9 µM [inhibitor, partial curve, poor fit]
CC(=O)N1CCc2cc(N=NC3=C(O)CC(C)(C)CC3=O)ccc21 | active: 13.5 µM
Cc1ccc(C(=O)COC(=O)c2cc(=O)[nH]c3ccccc23)cc1 | inconclusive: 0.675 µM [inhibitor, full curve]
O=C(O)/C=C/C(=O)Nc1ccc(NC(=O)c2ccccc2)c(Cl)c1 | inconclusive: 37.9 µM [inhibitor, partial curve, poor fit]
C=CCc1cccc2cc(C(=O)Nc3cccc(C(=O)O)c3)c(=O)oc12 | active: 12 µM
CCc1cc2c(=O)c(-c3ccc4c(c3)OCO4)coc2c(CN(C)C)c1O | inconclusive: 26.9 µM [inhibitor, partial curve, poor fit]
CC(C)COC(=O)/C(C#N)=C/c1c[nH]c2ccccc12 | inconclusive: 7.57 µM [inhibitor, partial curve]
O=C(Nc1ccc(F)cc1)c1cc(-c2ccccn2)nc2c(Cl)cccc12 | inactive
COc1nc(N)nc(NC23CC4CC(CC(C4)C2)C3)n1 | active: 5.36 µM
O=C/C=C/c1c(-c2ccccc2)cc2oc3ccccc3cc1-2 | inconclusive: 23.9 µM [inhibitor, partial curve]
COc1ccc2nc(/N=C(\N)NC(=O)C(C)(C)C)nc(C)c2c1 | inconclusive: 23.9 µM [inhibitor, single point]
Cc1ccc2c(Cl)c(C(=O)NC3CC3)sc2c1 | active: 4.78 µM
O=C(NCCc1ccc(Cl)cc1)c1ccc(Cn2c(=O)c3cccn3c3cccnc32)cc1 | inactive
CN(C)c1ccc(NC(=O)Cn2cc3c(n2)CCCC3)cc1 | active: 19 µM
Cc1ccc(CNc2nc3ccccc3c3nc(-c4cccc(C)c4)nn23)cc1 | inconclusive: 16.9 µM [inhibitor, partial curve]
Cn1c(=O)n(C)c2cc(/C=C3/SC(=O)N(CC(=O)N4CCOCC4)C3=O)ccc21 | inactive
CCN(CCn1cccn1)C(=O)c1cc(COc2ccc(F)cc2Cl)on1 | inconclusive: 33.8 µM [inhibitor, partial curve, poor fit]
Cc1ccc(-c2cc(C(=O)Nc3c(C)n(C)n(-c4ccccc4)c3=O)[nH]n2)c(O)c1C | inconclusive: 26.9 µM [inhibitor, single point]
Oc1ccccc1NCC(O)Cn1ccc2ccccc21 (centres undefined) | inconclusive: 37.9 µM [inhibitor, partial curve, poor fit]
